Measurements: publication PMC10691697, “A small molecule exerts selective antiviral activity by targeting the human cytomegalovirus nuclear egress complex” (PLOS Pathogens, 2023)
Values joined by “and” are separate entries in the source; they are usually repeats but may differ in a detail not shown here. Equal entries are not always repeated. Where two headings read alike, the source gives them in different places.

Tests used:
[1] = system: HCMV expressing GFP (53-F BADGFP); conditions: 6 dpi, replicates
HSV-1 P30-UL42 = biological target: T1, HSV-1 P30-UL42 (Human herpesvirus 1, UniProt P10226); experiment: biochemical; format: binding; conditions: HSV1 P30-UL42; 1.56 μM compound; replicates
T1 construct: containing UL42 residues 1–340; GST (N); glycine-serine linker of the modified pGEX6p plasmid (presence inferred) (N); made in house; host or cells: E. coli (UL42: pLysS BL21)

HFF cells = experiment: in vitro; format: cell-based, human; conditions: 6 days, replicates
Procedure: Cytotoxicities of various compounds were determined using a WST-1 assay that measures metabolic activity (Roche), and CC50’s were calculated as described previously.

T1 sequence (P10226 1-340): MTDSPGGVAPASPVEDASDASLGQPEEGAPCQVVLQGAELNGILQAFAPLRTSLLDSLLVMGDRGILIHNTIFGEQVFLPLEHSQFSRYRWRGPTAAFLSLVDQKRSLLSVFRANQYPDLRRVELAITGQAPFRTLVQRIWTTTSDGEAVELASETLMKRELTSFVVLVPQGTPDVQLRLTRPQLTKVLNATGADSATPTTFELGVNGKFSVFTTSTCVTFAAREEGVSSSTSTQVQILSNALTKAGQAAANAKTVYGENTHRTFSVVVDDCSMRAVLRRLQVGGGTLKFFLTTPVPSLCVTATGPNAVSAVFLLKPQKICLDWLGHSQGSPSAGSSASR

C=CC(=O)Nc1cccc(Oc2ccnc3[nH]ccc23)c1 [GK2]
anti-HCMV: number of plaques relative to DMSO vehicle ([1]; 0.80 μM compound): 85.0000 and 82.0000 and 79.0000
anti-HCMV: number of plaques relative to DMSO vehicle ([1]; 1.60 μM compound): 75.0000 and 63.0000 and 60.0000
normalized FRET signal relative to control without inhibitor (HSV-1 P30-UL42): 100.0000
cytotoxicity on HFF: WST-1 absorbance relative to DMSO vehicle (HFF cells; 0.80 μM compound): 84.0000 and 95.0000 and 100.0000
cytotoxicity on HFF: WST-1 absorbance relative to DMSO vehicle (HFF cells; 1.60 μM compound): 85.0000 and 100.0000 (2×)
